# Laboratory results from the supplement of paper PMC12632987.
# Whole data set: some 4,500 sequences, median “median log2 fold change of GCK-ALFA target abundance (FLAG IP / Myc IP barcode read proportion)” near 0.078, cut for the lowest 2% near -0.6. The list shows a part of the results.
# B1: GBRAP_52_6382 (protein)
# chain: EVEKAAKLLREAIELIIEGGEEEEIRKLAKEISKFSEEVIEKAAELVAEEILKLSKEEAEKVLDATFKLADILIEVGIPEEIASLIESTIGKAVYQRLQA
# B2: GBRAP_78_6575 (protein)
# chain: EVEELVDKAIELLGKAGSLLSKIDTEEAQEILDLVIDAMSDLLEAEENGFDLKLIEEALKKVEEALKLVKKIDTEEAKEIAKLLEEAKKYLEEAIKLLKK
# B3: GBRAP_128_3246 (protein)
# chain: MQEELLEEAKEIIDEIKEVDEERAAELTEELLELLKELDEESREEVAEYFEEKLKELTAEKLEVVADVIRERRGELDPYTAALVAGVEIDALELAEELEE
# B4: GBRAP_160_4163 (protein)
# chain: MEEAEELIKEVEEETKEAIELIEGESIEQRKVIIAGHFGVIIMTLFESDVVSDEVVDFAVELRDELVKWIDENPDASLEEIKKKIKEAEKKIKEKIKKDA
# B5: GBRAP_57_6453 (protein)
# chain: MSRLEKVEEKAEETKELIEKNAPKEEIEESVRELVSLLSEETLLDVALILDPTTDPDASREELEEHIVKLIMEALETKGKEAAFRMIDLIVGQKEMEEIE
# B6: GBRAP_125_3079 (protein)
# chain: ADAAALADLAALARALGLSEDDVAELVALAAASSLKQTLIALFMAEGWEEVADALEKLTEEQAKAVLAAVAAYLAAHPDATPEEVRARALALARAALAAA
# B7: GBRAP_166_4886 (protein)
# chain: SKEEEVEELLKKAEEYIKKIPSANEEEKQELVFEAAEALAKILELSPNNEEEHEKITKLIAELIKAVGDPTLVRGALGSNISMDEELIDKLDELLEKALK
# B8: GBRAP_83_6926 (protein)
# chain: MEEIVVAANGDNVQAAFDAAIDLAKNEGYKVSLDVIITREDIPALKEAFEKLAKAGVNVELRILAVGMTEEEAKALEKELKEIAKKYGVEVKVEVEVVEA
# B9: GBRAP_11_2868 (protein)
# chain: KKEKLEELAKLVKEAIEKLEKLLKEGVDNEELRKEIKKLLKEALKLAEKYASPAVAELLKIALEDLEKAEEDPENAKEYVERALAALRVAHGDLLLEIDE
# B10: GBRAP_160_4229 (protein)
# chain: SETVKKIVAITRESLEEALELIEGETPEERRVILDVTHGEILLEVDEIEEATDEMEEVVDESVEETRERLLAARDATPEEKRAIVEEGVRELEERLKEVE
# B11: GBRAP_139_3698 (protein)
# chain: SALEKKIEEAKELTKKMKENEEESIDKIVELIKSSSLEEAEKIVEAIAEELSELPLDEAEELADKLLERIEEKIEDEDKVDLAEAILNGALARKAYQEEL
# B12: GBRAP_160_4120 (protein)
# chain: SEKLLKTAKDNAEDFEETIEEIEDLSNEEAGTLAIVTLGEAILDFSELDGEFEEEEEFAEELMDELRETEKTDPEKLKEKSLEKLKEAKERFKKKAKELE
# B13: GBRAP_128_3316 (protein)
# chain: MNEEKLAKAKELIEKLKKADLETLRKLTREIVELMGTATPEEQEIIAELFEEGLKKLSAEKLEAVADVLREQMPTLDPDTANIVADLEVEALNLAEEKEE
# B14: GBRAP_184_5214 (protein)
# chain: KLVNRAVEAETAEEAIEKSEKVVEEAEKEGVELNLVVFAKNMSIEEIEEVMKYLSELKKEGKIKDAILVIEDDLSEEEIDEILKLADKYGIKVVLALPDE
# B15: GBRAP_128_3306 (protein)
# chain: MDEEALAEAEELVRRMVEADVEEAAELTRRIVALMATLSPEERERVAEIMEKAFEELDAEKLEAVADVLRAERPTLDPETAREVAGLEVEALNQAVEKEE
# B16: GBRAP_160_4563 (protein)
# chain: MEEAEKLVKELREDVEKTLEETKNDSVENLKVALEGVIGSHAMEAAEDPRFTDEQVDVLLDARDEISEYLKKHKNASVEEIKKKVLEIVEKAGKEILALA
# B17: GBRAP_160_3982 (protein)
# chain: EERYEKIIKFIDETFEEAIKLIEGETHEERVTIVEGHGGQILMMLMSDENVSDEAEEKVAEIIDELVEYLKENPDLTLEEIKELIKEAREKIKEVLKEAF
# B18: GBRAP_52_6301 (protein)
# chain: MREEAERLAEELLELMRAGRREEAEALLKEIVETKSEEFIRLLAEVLARRAEEADEEEQDLIFEIMEMLADALLEGGYDEAFAGDLLALVAAAIYKAELR
# B19: GBRAP_139_3734 (protein)
# chain: SAEDAAVAEVVALTRQSVATGGALVAEIADALAALDEATAERAADAMAEVMKSQPFDVVETLFDALIETLLTDHGDEDLATIVEAARNRALAEVAVREEA
# B20: GBRAP_43_5748 (protein)
# chain: DRELVEGAVDTVLLMAEDPRVSPETVLRAFKAALDLIADTGVKLKDGLTAATAAVAARLSPEQVRALIAHIEELAKKSPEVKETFEAAKAVLEAALAARE
# B21: GBRAP_160_4762 (protein)
# chain: KEELKKLKEEIEEIFKEHIELLKEVPKEKAVTVVEGAMGEVLMLAFSSEAVSDELEEKIGEIMDEAVERAKENKDAPVEVHIKILEEAREKILELIEEEI
# B22: GBRAP_74_6570 (protein)
# chain: SEEKIKEIKEVAATKSLKEFSEYLLENIDELDEESLLVALEELKKLVEENKDTLTPEELEAAAEAAAALADKAFTTESSDETLDAAVELLTAVVEAEKKF
# B23: GBRAP_39_5687 (protein)
# chain: EKEEEAEDTVSYLEALAAKYLYETGISLEEAYERAKEILTKLAKEHPELKELIEELIKLADEKGEEAKLALIGVAVLIEEGTPLEEIKKNIELIIYYFKS
# B24: GBRAP_160_4105 (protein)
# chain: SEKIEEFLEEFREVFEEVLELYDEISAEELVNFYEVELSSVILDAKDELNLSDETVDELLEVRDEAAERLRENYDASREEIREILEEAFERMEEVLEENE
# B25: GBRAP_128_3435 (protein)
# chain: AEEAKLAEAKALIDKILKASVEEVYELTKELLALFGTLSPEAAQEVADYVISQIPKLTKEQLEALADAIREQRPTLDPYHANLANEVEVEALNQILELEE
# B26: GBRAP_137_3628 (protein)
# chain: AVVEIRVERYEDVVEITVTLADAELAEAVEELVLDVAHEHGALAVSVERREDGTLEVTVWVPRERAEALLEELVRRLREELGLEVRVEDLDTGEVEEFRP
# B27: GBRAP_184_5222 (protein)
# chain: ETVRESVEAKTAEEAIKKSNEVIEKAEKEGKELDLHVFLENMSLEEIEKVMKYLSELKKEGKIKNATVTILDERSEEEIDKLVEIADKYGIRLVVALPDE
# B28: GBRAP_74_6561 (protein)
# chain: SEEKIKEIKEVAETKSILEFANYILEHIDELDEEALLVAAEELARKVEEEKDELTPEELEAVAEAVAALADKVFTEDASREALEAMNRLIALVVELEKKA
# B29: GBRAP_52_6337 (protein)
# chain: AAAAIEAAAEAIADAVVAGRLDEAVALTREVAETKSLEEVRAMLLRTAELIAERLPDREDLAFEAIFRLADVVEEVLGNEELADEVEAHMARLLVERRRA
# Target: GABARAP, O95166
# Assay: median log2 fold change of GCK-ALFA target abundance (FLAG IP / Myc IP barcode read proportion) (log2 ratio); each designed protein is fused to an ALFA-tag nanobody in HEK293 cells to bring the named protein to FLAG-tagged glucokinase (GCK); Myc marks an untargeted standard; higher = target protein stabilised (more abundant)
# Settings: target protein: 3xFLAG-MCP-GCK-ALFA reporter; HEK293 landing pad (RPLP)
# Outline: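 An ALFA-nanobody-fused binder library was recombined into HEK293 landing-pad cells and induced with 2 μg mL^−1 doxycycline. Cells were transfected with a plasmid expressing a FLAG-tagged target and a Myc-tagged standard. After 48 h, lysates underwent anti-FLAG and anti-Myc immunoprecipitation, and circular RNA barcodes were reverse transcribed, amplified and sequenced. Target abundance is the per-binder median log2 ratio of FLAG to Myc barcode read proportions. Barcodes needed ≥10^−7 proportion in both replicates, binders ≥3 barcodes per replicate, and a 10^−6 pseudocount was added; the two replicates were pooled.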
# Chain of GABARAP, O95166 (O95166 whole entry, the tested form may be a part): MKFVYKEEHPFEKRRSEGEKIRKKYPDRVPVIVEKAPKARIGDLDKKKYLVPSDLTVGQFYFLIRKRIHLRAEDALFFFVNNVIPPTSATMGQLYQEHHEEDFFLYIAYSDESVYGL
row,Binder,median log2 fold change
1,B1,0.00279
2,B2,0.122
3,B3,-0.282
4,B4,0.215
5,B5,0.289
6,B6,0.1
7,B7,0.388
8,B8,0.0202
9,B9,0.0406
10,B10,-0.135
11,B11,-0.0178
12,B12,0.187
13,B13,0.338
14,B14,0.201
15,B15,0.161
16,B16,0.116
17,B17,0.198
18,B18,-0.198
19,B19,0.234
20,B20,0.171
21,B21,0.0708
22,B22,-0.135
23,B23,0.196
24,B24,-0.565
25,B25,0.297
26,B26,-0.285
27,B27,-0.251
28,B28,-0.0445
29,B29,-0.0864
